Test results: publication PMC8141534 (2021)

Legend:
[1] = target: peptide 16 (His-tagged, 38-mer); assay: ITC
[2] = target: peptide 33 (His-tagged, 38-mer); assay: ITC; polyC
[3] = target: peptide 33 (His-tagged, 38-mer); assay: ITC; NusG-CTD + ATP
[4] = target: peptide 33 (His-tagged, 38-mer); assay: ITC; poly dC34 + ATP

Chain of peptide 33 (His-tagged, 38-mer) (P0AG30 whole entry P167L): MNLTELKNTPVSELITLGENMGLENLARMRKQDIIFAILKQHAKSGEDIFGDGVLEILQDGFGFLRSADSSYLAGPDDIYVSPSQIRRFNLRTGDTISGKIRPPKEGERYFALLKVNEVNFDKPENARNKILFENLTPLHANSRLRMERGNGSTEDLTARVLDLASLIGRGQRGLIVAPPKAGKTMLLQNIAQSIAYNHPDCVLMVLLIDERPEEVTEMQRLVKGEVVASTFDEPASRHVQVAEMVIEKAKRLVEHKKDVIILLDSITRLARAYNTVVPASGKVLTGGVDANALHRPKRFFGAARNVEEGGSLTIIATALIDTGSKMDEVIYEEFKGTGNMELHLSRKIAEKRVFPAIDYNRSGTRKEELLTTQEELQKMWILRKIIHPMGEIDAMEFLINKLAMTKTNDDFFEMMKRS
Chain of peptide 16 (His-tagged, 38-mer) (P0AG30 whole entry P167L): as above

Kd [1]: 214 nM | Kd [2]: 164 nM | Kd [3]: 26.5 nM | Kd [4]: 255 nM
B1: P167L Rho (natural protein)
chain: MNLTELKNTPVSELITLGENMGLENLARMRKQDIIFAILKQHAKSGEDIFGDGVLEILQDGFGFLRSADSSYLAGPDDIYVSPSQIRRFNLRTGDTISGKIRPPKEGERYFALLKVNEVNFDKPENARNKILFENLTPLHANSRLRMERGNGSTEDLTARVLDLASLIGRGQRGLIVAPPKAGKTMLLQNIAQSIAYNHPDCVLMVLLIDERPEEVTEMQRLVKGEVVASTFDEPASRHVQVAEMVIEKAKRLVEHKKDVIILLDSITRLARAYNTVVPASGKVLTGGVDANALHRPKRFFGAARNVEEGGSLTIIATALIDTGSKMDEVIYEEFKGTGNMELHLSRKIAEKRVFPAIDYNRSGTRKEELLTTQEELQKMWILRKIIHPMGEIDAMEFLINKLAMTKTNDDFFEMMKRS
